Measurements reported in article PMC5700166.
The entries are a selection whose mix differs from that of the whole data set. The list includes weakly bound sequences.

Experiments:
Assay in all cases: protein-binding microarray (PBM)
Conditions in all cases: PBM: ~300 nM protein, 6 mM HEPES pH 7.8, 80 mM KCl, 0.5 mM EDTA, 0.5 mM EGTA, 6% glycerol, 35 ng/ul poly-dIdC, 1% milk, 1 h, room temperature; Ap Aiptasia and Nv Nematostella (sea anemones) / Co Capsaspora / Aq Amphimedon (sponge) / Dm Drosophila / Hu human; RHD is the Rel homology domain; high values mean tight binding; most listed sequences are background and not binding sites; double strand, one strand shown
[1] = target: T1, GST-Ap-NF-kB RHD (UniProt A0A913YAJ5)
T1 sequence: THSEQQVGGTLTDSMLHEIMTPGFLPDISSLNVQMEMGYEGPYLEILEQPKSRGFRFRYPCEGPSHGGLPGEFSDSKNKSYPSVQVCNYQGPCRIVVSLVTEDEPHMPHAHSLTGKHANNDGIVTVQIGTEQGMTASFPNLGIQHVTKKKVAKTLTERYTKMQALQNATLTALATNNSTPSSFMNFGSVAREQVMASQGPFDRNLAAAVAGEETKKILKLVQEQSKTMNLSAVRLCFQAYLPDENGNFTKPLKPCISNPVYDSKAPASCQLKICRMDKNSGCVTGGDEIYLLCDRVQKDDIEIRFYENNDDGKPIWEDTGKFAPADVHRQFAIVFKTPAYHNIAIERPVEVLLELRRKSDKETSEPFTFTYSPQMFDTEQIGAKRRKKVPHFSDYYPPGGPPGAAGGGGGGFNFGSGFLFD

[2] = target: T2, GST-Co-NF-kB (UniProt F1ARL5)
T2 sequence: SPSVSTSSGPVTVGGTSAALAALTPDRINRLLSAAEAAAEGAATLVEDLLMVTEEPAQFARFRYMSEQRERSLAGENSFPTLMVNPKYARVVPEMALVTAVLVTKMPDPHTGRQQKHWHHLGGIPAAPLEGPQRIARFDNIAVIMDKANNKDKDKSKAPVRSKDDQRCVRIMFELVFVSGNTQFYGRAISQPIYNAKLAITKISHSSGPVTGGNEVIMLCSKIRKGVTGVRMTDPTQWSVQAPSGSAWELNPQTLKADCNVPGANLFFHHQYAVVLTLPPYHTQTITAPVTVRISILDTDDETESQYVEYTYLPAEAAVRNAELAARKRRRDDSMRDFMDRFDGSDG

[3] = target: T3, GST-Dm-Relish (UniProt Q94527)
T3 sequence: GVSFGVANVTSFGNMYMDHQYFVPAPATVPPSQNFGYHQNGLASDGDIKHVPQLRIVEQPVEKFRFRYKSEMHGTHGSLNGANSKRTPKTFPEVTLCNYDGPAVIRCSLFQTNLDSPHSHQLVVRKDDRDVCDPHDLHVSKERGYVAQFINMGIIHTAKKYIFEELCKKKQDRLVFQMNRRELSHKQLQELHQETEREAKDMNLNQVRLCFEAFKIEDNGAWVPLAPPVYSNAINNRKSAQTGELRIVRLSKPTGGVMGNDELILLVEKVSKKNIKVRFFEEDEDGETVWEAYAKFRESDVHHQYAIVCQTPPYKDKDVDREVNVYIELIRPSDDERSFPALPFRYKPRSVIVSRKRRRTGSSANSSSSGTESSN

CCGATTAACATCAAACTTCCCCCTGATGTTAATCGGGTCTTGATTCGCTTGACGCTGCTG
binding signal [1]: 7.75 z-score
binding signal [2]: 9.35 z-score

CCGATTAACATCAGGGAAGCACCTGATGTTAATCGGGTCTTGATTCGCTTGACGCTGCTG
binding signal [1]: 4.67 z-score
binding signal [2]: 0.793 z-score
binding signal [3]: 9.38 z-score

CCGATTAACATCAGGCAAATCCCTGATGTTAATCGGGTCTTGATTCGCTTGACGCTGCTG
binding signal [1]: 1.95 z-score
binding signal [2]: 0.285 z-score

CCGATTAACATCAGGAAAAAACCTGATGTTAATCGGGTCTTGATTCGCTTGACGCTGCTG
binding signal [1]: 0.158 z-score
binding signal [2]: -0.614 z-score

CCGATTAACATCACGGTATTTCCTGATGTTAATCGGGTCTTGATTCGCTTGACGCTGCTG
binding signal [1]: 1.56 z-score
binding signal [2]: 0.893 z-score

CCGATTAACATCAGAAACCCCCCTGATGTTAATCGGGTCTTGATTCGCTTGACGCTGCTG
binding signal [1]: 9.47 z-score
binding signal [2]: 3.94 z-score

CCGATTAACATCACCTTTCCCCCTGATGTTAATCGGGTCTTGATTCGCTTGACGCTGCTG
binding signal [1]: 6.53 z-score
binding signal [2]: 9.42 z-score
binding signal [3]: 2.89 z-score

CCGATTAACATCAGATATTCCCCTGATGTTAATCGGGTCTTGATTCGCTTGACGCTGCTG
binding signal [1]: 7.71 z-score
binding signal [2]: 8.17 z-score

CCGATTAACATCACGGTTATTCCTGATGTTAATCGGGTCTTGATTCGCTTGACGCTGCTG
binding signal [1]: 1.09 z-score
binding signal [2]: 0.264 z-score

CCGATTAACATCAAATAAGTCCCTGATGTTAATCGGGTCTTGATTCGCTTGACGCTGCTG
binding signal [1]: 4.69 z-score
binding signal [2]: 1.42 z-score

CCGATTAACATCAGCCCCCCGTCTGATGTTAATCGGGTCTTGATTCGCTTGACGCTGCTG
binding signal [1]: 3.16 z-score
binding signal [2]: 3 z-score
binding signal [3]: 3.83 z-score

CCGATTAACATCAAGGACTTCCCTGATGTTAATCGGGTCTTGATTCGCTTGACGCTGCTG
binding signal [1]: 2.9 z-score
binding signal [2]: 0.935 z-score

CCGATTAACATCAGGGAATGTACTGATGTTAATCGGGTCTTGATTCGCTTGACGCTGCTG
binding signal [1]: 2.21 z-score
binding signal [2]: 2.29 z-score

CCGATTAACATCAGAAAATGCCCTGATGTTAATCGGGTCTTGATTCGCTTGACGCTGCTG
binding signal [1]: 1.93 z-score
binding signal [2]: 0.802 z-score

CCGATTAACATCAGGGAAAATACTGATGTTAATCGGGTCTTGATTCGCTTGACGCTGCTG
binding signal [1]: 3.76 z-score
binding signal [2]: 4.49 z-score

CCGATTAACATCAGGGGGGTTAATGATGTTAATCGGGTCTTGATTCGCTTGACGCTGCTG
binding signal [1]: 4.64 z-score
binding signal [2]: 3.92 z-score

CCGATTAACATCACGGAGTTCCCTGATGTTAATCGGGTCTTGATTCGCTTGACGCTGCTG
binding signal [1]: 2.6 z-score
binding signal [2]: 1.53 z-score

CCGATTAACATCAGGATTTTACCTGATGTTAATCGGGTCTTGATTCGCTTGACGCTGCTG
binding signal [1]: 0.677 z-score
binding signal [2]: -0.257 z-score
binding signal [3]: 3.21 z-score

CCGATTAACATCACAGGGAAAAATGATGTTAATCGGGTCTTGATTCGCTTGACGCTGCTG
binding signal [1]: 2.81 z-score
binding signal [2]: 5.03 z-score

CCGATTAACATCAAATAGTCCCCTGATGTTAATCGGGTCTTGATTCGCTTGACGCTGCTG
binding signal [1]: 7.11 z-score
binding signal [2]: 4.46 z-score

CCGATTAACATCAGGGAGTTCACTGATGTTAATCGGGTCTTGATTCGCTTGACGCTGCTG
binding signal [1]: 2.23 z-score
binding signal [2]: 0.866 z-score

CCGATTAACATCAGGAATCACCCTGATGTTAATCGGGTCTTGATTCGCTTGACGCTGCTG
binding signal [1]: 2.46 z-score
binding signal [2]: 0.907 z-score
binding signal [3]: 7.17 z-score

CCGATTAACATCAGAAAATACCATGATGTTAATCGGGTCTTGATTCGCTTGACGCTGCTG
binding signal [1]: 0.863 z-score
binding signal [2]: 0.38 z-score

CCGATTAACATCAGAATATTCCCTGATGTTAATCGGGTCTTGATTCGCTTGACGCTGCTG
binding signal [1]: 5.6 z-score
binding signal [2]: 3.41 z-score

CCGATTAACATCAAATGTTCCCCTGATGTTAATCGGGTCTTGATTCGCTTGACGCTGCTG
binding signal [1]: 5.58 z-score
binding signal [2]: 9.87 z-score

CCGATTAACATCAGGGTCTTATATGATGTTAATCGGGTCTTGATTCGCTTGACGCTGCTG
binding signal [1]: 0.081 z-score
binding signal [2]: 0.142 z-score
binding signal [3]: 0.926 z-score

CCGATTAACATCAGGGGGGACTATGATGTTAATCGGGTCTTGATTCGCTTGACGCTGCTG
binding signal [1]: 5.46 z-score
binding signal [2]: 5.47 z-score

CCGATTAACATCAGGGGATGAACTGATGTTAATCGGGTCTTGATTCGCTTGACGCTGCTG
binding signal [1]: 2.44 z-score
binding signal [2]: 3.23 z-score
binding signal [3]: 7.62 z-score

CCGATTAACATCAAACAACCCCCTGATGTTAATCGGGTCTTGATTCGCTTGACGCTGCTG
binding signal [1]: 5.66 z-score
binding signal [3]: 5.24 z-score

CCGATTAACATCAGGGGGATCCATGATGTTAATCGGGTCTTGATTCGCTTGACGCTGCTG
binding signal [1]: 7.42 z-score
binding signal [3]: 7.45 z-score

CCGATTAACATCAACCATTCCCCTGATGTTAATCGGGTCTTGATTCGCTTGACGCTGCTG
binding signal [1]: 5.66 z-score
binding signal [3]: 1.96 z-score

CCGATTAACATCAAGGGATTTCCTGATGTTAATCGGGTCTTGATTCGCTTGACGCTGCTG
binding signal [1]: 5.46 z-score
binding signal [3]: 7.74 z-score

CCGATTAACATCAGGGGATTCGATGATGTTAATCGGGTCTTGATTCGCTTGACGCTGCTG
binding signal [1]: 5.58 z-score
binding signal [3]: 3.8 z-score

CCGATTAACATCACGGGAACCCCTGATGTTAATCGGGTCTTGATTCGCTTGACGCTGCTG
binding signal [1]: 5.04 z-score
binding signal [3]: 9.89 z-score
